Columns and labels:
[1] = tested on: neuraminidase activity of influenza virus A/Almaty/8/98 (H3N2); assay: Effect on neuraminidase activity (fluorescent kit); conditions: maximum dose 1 mg/100 μL
[2] = tested on: influenza virus A/Almaty/8/98 (H3N2); assay: Virus inhibitory activity on chicken embryo model (chemical therapeutic index); conditions: samples 0.0016%–0.2% (0.003–0.4 mg per chicken embryo), Rimantadine 10 µg/mL, Tamiflu 6 µg/mL
[3] = tested on: influenza virus A/Almaty/8/98 (H3N2); conditions: compound 0.2%, 0.4 mg/ch.e. (8 mg/kg)

CCc1cc(C(=O)OCc2cn(C[C@@H]3CCCN4CCCC[C@H]34)nn2)c(O)c(C(C)(C)C)c1 [Compound 5, {1-[((1S,9aR)-Octahydro-2H-quinolizin-1-yl)methyl]-1H-1,2,3-triazol-4-yl}methyl-3-tert-butyl-2-hydroxy-5-ethylbenzoate]
Suppression of neuraminidase activity [1]: no more than 40%
Chemical Therapeutic Index of the Studied Sample [2]: >100.0

COc1ccc(-c2cn(C[C@@H]3CCCN4CCCC[C@H]34)nn2)cc1 [Compound 1, (1S,9aR)-1-{[4-(4-Methoxyphenyl)-1H-1,2,3-triazol-1-yl]methyl}octahydro-2H-quinolizine]
Chemical Therapeutic Index of the Studied Sample [2]: 65.0

c1ccc(-c2cn(C[C@@H]3CCCN4CCCC[C@H]34)nn2)cc1 [Compound 3, (1S,9aR)-1-[(4-Phenyl-1H-1,2,3-triazol-1-yl)methyl]octahydro-2H-quinolizine]
Chemical Therapeutic Index of the Studied Sample [2]: 8.0
Decrease in Influenza Virus Infectivity Titer, lg [3]: 0.0 lg

O=Cc1ccc(OCc2cn(C[C@@H]3CCCN4CCCC[C@H]34)nn2)cc1 [Compound 4, 4-({1-[((1S,9aR)-Octahydro-2H-quinolizin-1-yl)methyl]-1H-1,2,3-triazol-4-yl}methoxy)benzaldehyde]
Suppression of neuraminidase activity [1]: no more than 40%
Chemical Therapeutic Index of the Studied Sample [2]: 50.0

Cc1cccc(-c2cn(C[C@@H]3CCCN4CCCC[C@H]34)nn2)c1 [Compound 2, (1S,9aR)-1-{[4-(m-Tolyl)-1H-1,2,3-triazol-1-yl]methyl}octahydro-2H-quinolizine]
Chemical Therapeutic Index of the Studied Sample [2]: 65.0
Decrease in Influenza Virus Infectivity Titer, lg [3]: 0.75 lg

CC(N)C12CC3CC(CC(C3)C1)C2 (stereo not drawn) [Rimantadine, alpha-methyltricyclo[3.3.1.1/.7]decan-1-methanamine, reference compound]
Chemical Therapeutic Index of the Studied Sample [2]: 29.9

CCOC(=O)C1=C[C@@H](OC(CC)CC)[C@H](NC(C)=O)[C@@H](N)C1 [Tamiflu, (3R,4R,5S)-4-acetylamino-5-amino-3-(1-ethylpropoxy)-1-cyclohexene-1-carboxylic acid ethyl ether, phosphate, reference compound]
Chemical Therapeutic Index of the Studied Sample [2]: 10.3

Source: PMC11644009 (Molecules, 2024)
